{"source": "ChEMBL document CHEMBL1201862", "about": "“PubChem BioAssay data set” (2004)", "note": "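Test compounds were applied to cells in 96-well plates for 48 hours at 5 doses. Abbreviation: GI50, concentration required for 50% inhibition of growth.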 Calls of active or inactive are those of the source. No stated cut-off is given here; in the data, active = GI50 up to about 1.1 µM and inactive = higher."}
{"system": "NCI-H322M", "assay": "DTP human tumour cell line panel, 48 h"}
{"molecule": "Cc1c2ccncc2c(C)c2c1sc1ccccc12", "GI50": "inactive: 14.5 µM"}
{"molecule": "COc1cc2c(cc1OCc1ccccc1)NC(=O)[C@@H]1C[C@@H](O)CN1C2=O", "GI50": "inactive: > 100 µM"}
{"molecule": "Nc1ncnc2c1nnn2C1CCC(CP(=O)(O)O)C1", "note": "(centres undefined)", "GI50": "inactive: > 100 µM"}
{"molecule": "Cc1ccc2nc(NC(=O)C(=O)C(C#N)c3ccc(Cl)cc3)sc2c1", "note": "(centres undefined)", "GI50": "inactive: > 50 µM"}
{"molecule": "O=[N+]([O-])C1C2C=CC(C2)[C@H]1c1ccccc1Cl", "note": "(some centres undefined)", "GI50": "inactive: > 100 µM"}
{"molecule": "CC[C@H]1C=CCC[C@@]2(C[C@@H]3CC[C@@H]4[C@H](C(=O)OCCCCCCCCCCCCCCCC(=O)O)[C@]5(CCC[C@@H](C)O5)NC(=[N+]34)N2)O1", "note": "[CRAMBESCIDIN 657]", "GI50": "active: 0.879 µM"}
{"molecule": "CC1=CCCC2C(C=O)(C1)CC(C)C2(CO)CC/C(=C/CO)CO", "note": "(centres undefined)", "GI50": "inactive: > 100 µM"}
{"molecule": "Cc1c(-c2nc3ccccc3[nH]2)c(=O)n(-c2ccccc2)n1C", "GI50": "inactive: > 100 µM"}
{"molecule": "c1cc(-c2ccc(-c3ccc(C4=NC5CCCCC5N4)cc3)o2)ccc1C1=NC2CCCCC2N1", "note": "(centres undefined)", "GI50": "inactive: 1.36 µM"}
{"molecule": "O=C1N(CN2CCOCC2)CN(CN2CCOCC2)C(=O)N1Cc1ccc(-c2ccc(CN3C(=O)N(CN4CCOCC4)CN(CN4CCOCC4)C3=O)cc2)cc1", "GI50": "inactive: 16.3 µM"}
{"molecule": "CNC(=O)CN(CC(=O)NC)C(=O)NC", "GI50": "inactive: > 100 µM"}
{"molecule": "Nc1ncnc2c1ncn2CC(OCP(=O)(O)O)Oc1ccccc1", "note": "(centres undefined)", "GI50": "inactive: > 100 µM"}
{"molecule": "C=C1C[C@@H](O)[C@@H](Br)C(C)(C)[C@@]12C=CC(O)(CBr)CC2", "note": "(some centres undefined)", "GI50": "inactive: 48 µM"}
{"molecule": "N=C(N)SCCc1ccccn1", "GI50": "inactive: > 100 µM"}
{"molecule": "O=C1c2ccccc2C(=O)c2c(NCC3CO3)cccc21", "note": "(centres undefined)", "GI50": "inactive: > 51.4 µM"}
{"molecule": "C[N+](C)(C)CCC(=O)N1C/C(=C\\c2ccccc2)C(=O)/C(=C/c2ccccc2)C1", "GI50": "inactive: 14.9 µM"}
{"molecule": "COc1ccc(C2=NN(c3ccccc3)C[N+](c3ccc(C)cc3)=N2)cc1", "GI50": "inactive: 29.5 µM"}
{"molecule": "CC(=O)CC(=O)CCC(=O)O", "note": "[SUCCINYLACETONE]", "GI50": "inactive: 34.4 µM"}
{"molecule": "COC(=O)C(Cc1ccccc1)NC(=O)C(CNC(=O)OCc1ccccc1)C(=O)OCc1ccccc1", "note": "(centres undefined)", "GI50": "inactive: 72.1 µM"}
{"molecule": "CN1CCN(C(=S)N(C(=O)c2cccs2)C2CCCCC2)CC1", "GI50": "inactive: > 100 µM"}
{"molecule": "Nn1c(-c2cccc(Cl)c2)nc2ccccc2c1=O", "GI50": "inactive: > 100 µM"}
{"molecule": "O=C1Nc2ccccc2C1Cc1ccc([N+](=O)[O-])cc1", "note": "(centres undefined)", "GI50": "inactive: > 100 µM"}
{"molecule": "COC(=O)/C=C/CC(=O)NS(C)(=O)=O", "GI50": "inactive: > 10 µM"}
{"molecule": "C[C@@H]1CCC([C@@H](C)[C@H]2CC[C@H]3[C@@H]4CC[C@H]5C[C@@H](O)CC[C@]5(C)[C@H]4CC[C@]23C)=NC1", "GI50": "inactive: 17.2 µM"}
{"molecule": "COC(=O)C1CCCCCCCCCCC12SCCCS2", "note": "(centres undefined)", "GI50": "inactive: 23.7 µM"}
{"molecule": "OC(c1cc(-c2ccc(Cl)cc2)nc2ccccc12)C1CCCCN1", "note": "(centres undefined)", "GI50": "inactive: 2.33 µM"}
{"molecule": "N#CN=C(NCc1ccccc1)NCc1ccccc1", "GI50": "inactive: > 100 µM"}
{"molecule": "O=C(CSc1nc(-c2ccccc2)c(-c2ccccc2)[nH]1)NNC(=S)Nc1ccccc1", "GI50": "inactive: 89.1 µM"}
{"molecule": "Cc1c2ccccc2nc2[nH]c3ccncc3c12", "GI50": "inactive: 21.7 µM"}
{"molecule": "CC(=O)Nc1ccc(-c2nnc(SCC(=O)Nc3cccc(C)c3)o2)cc1", "GI50": "inactive: 23.5 µM"}
{"molecule": "CC(=O)O[C@H]1C(=O)[C@@]2(C)[C@H]([C@H](OC(=O)c3cccc([N+](=O)[O-])c3)[C@]3(O)C[C@H](OC(=O)[C@H](O)[C@@H](NC(=O)c4ccccc4)c4ccccc4)C(C)=C1C3(C)C)[C@]1(OC(C)=O)CO[C@@H]1C[C@@H]2O", "GI50": "active: 0.125 µM"}
{"molecule": "O=C1/C(=C/c2ccccc2)N=C(c2ccccc2)N1C1Nc2cc3c(cc2S1)NC(N1C(=O)/C(=C/c2ccccc2)N=C1c1ccccc1)S3", "note": "(centres undefined)", "GI50": "inactive: 23.3 µM"}
{"molecule": "COc1ccc(N2CN(C)CSC2=S)cc1", "GI50": "inactive: > 100 µM"}
{"molecule": "CCO/C=C\\C12CCCC1NC(c1ccccc1)(c1ccccc1)O2", "note": "(centres undefined)", "GI50": "inactive: > 100 µM"}
{"molecule": "Cc1ccc(NC(=O)c2cc3cc(/N=N/c4ccccc4C(=O)O)ccc3oc2=O)cc1", "GI50": "inactive: 49 µM"}
{"molecule": "CCCCCCCCC/C=C1/CC(CO)(COC(=O)c2ccccc2)OC1=O", "note": "(centres undefined)", "GI50": "inactive: 22.8 µM"}
{"molecule": "N#CC(C#N)=Cc1c[nH]c(=O)[nH]c1=O", "GI50": "inactive: > 100 µM"}
{"molecule": "O=C1C=CC(=O)c2c(O)c(N3CCN(c4ccccn4)CC3)cc(O)c21", "GI50": "inactive: 6.56 µM"}
{"molecule": "Cc1nc(Nc2ccc(Cl)cc2)sc1C(=O)NNc1ccc([N+](=O)[O-])cc1[N+](=O)[O-]", "GI50": "inactive: 18.4 µM"}
{"molecule": "CNC1=C/C(=N/C2=CC(=N/C(=C\\C#N)C(C)(C)O)/OC2(C)C)OC1(C)C", "GI50": "inactive: 33.2 µM"}
{"molecule": "Nc1ccccc1C(=O)CCc1c[nH]c2ccccc12", "GI50": "inactive: 76.7 µM"}
{"molecule": "CSc1nc2c3ccccc3ccn2c1C(=O)N/N=C/c1ccccc1", "GI50": "inactive: > 47.4 µM"}
{"molecule": "N/C(=N\\c1ccccc1)c1ccccc1N", "GI50": "inactive: > 100 µM"}
{"molecule": "NS(=O)(=O)c1ccc(NCc2cnc3ccccc3c2)cc1", "GI50": "inactive: > 100 µM"}
{"molecule": "O=C1Nc2ccccc2/C1=N/NC(=S)Nc1ccc(Cl)cc1", "GI50": "inactive: 14 µM"}
{"molecule": "COc1ccc(-n2c(N)c(C#N)[nH]c2=O)cc1", "GI50": "inactive: > 10 µM"}
{"molecule": "CN(C)Cc1cc(/N=N/c2ccccc2)ccc1O", "GI50": "inactive: 57 µM"}
{"molecule": "CSc1n[n+](C)cc(N)c1N", "GI50": "inactive: > 100 µM"}
{"molecule": "CC1=C2C(O)C(C(C)C(=O)NC(C)C)CCC2(C)C=CC1=O", "note": "(centres undefined)", "GI50": "inactive: > 100 µM"}
{"molecule": "Cn1c(=O)c(C(c2ccc([N+](=O)[O-])cc2)c2c(O)c3ccccc3n(C)c2=O)cc2ccccc21", "note": "(centres undefined)", "GI50": "inactive: 99.8 µM"}
{"molecule": "CN(C)C(=O)/N=c1\\ss/c(=N\\C(=S)N(C)C)n1-c1ccccc1", "GI50": "inactive: 61.4 µM"}
{"molecule": "C[C@]12CC[C@@H]3c4ccc(O)cc4CC[C@H]3[C@@H]1C/C(=C\\c1ccncc1)[C@@H]2O", "GI50": "inactive: 23.9 µM"}
{"molecule": "N#CC1(c2ccccc2)CCN(C2(c3ccccc3)CCCCC2)CC1", "GI50": "inactive: > 100 µM"}
{"molecule": "N=C(N)NS(=O)(=O)c1ccc(Nc2c3ccccc3nc3ccc(C(=O)Nc4ccc(S(N)(=O)=O)cc4)cc23)cc1", "GI50": "inactive: > 100 µM"}
{"molecule": "CN(c1ccc(Cl)cc1)S(=O)(=O)c1cccc([N+](=O)[O-])c1", "GI50": "inactive: > 100 µM"}
{"molecule": "C/C(=N\\NC(N)=O)C(CN1CCCCC1)C(c1ccccc1)c1c(O)c2ccccc2oc1=O", "note": "(centres undefined)", "GI50": "inactive: > 100 µM"}
{"molecule": "CCCCCCCCCCCCOC1C(COCCN2CCCC2)OC2OC(C)(C)OC21", "note": "(centres undefined)", "GI50": "inactive: 10 µM"}
{"molecule": "CC(C)(C)OC(=O)N(CCCCN(CCCNC(=O)C(F)(F)F)C(=O)OC(C)(C)C)CCCNC(=O)C(F)(F)F", "GI50": "inactive: > 100 µM"}
{"molecule": "Cc1cc(C)c(/C=C(\\C(=C/c2c(C)cc(C)cc2C)[N+](=O)[O-])[N+](=O)[O-])c(C)c1", "GI50": "inactive: > 100 µM"}
{"molecule": "C=C1CC(Cn2cc(Br)c(=O)[nH]c2=O)(c2ccc(-c3ccccc3)cc2)OC1=O", "note": "(centres undefined)", "GI50": "inactive: 7.78 µM"}
{"molecule": "Cc1cc(=O)[nH]c2cc(NC(=O)C(CCCNC(=N)N)NC(=O)OCc3ccccc3)ccc12", "note": "(centres undefined)", "GI50": "inactive: > 100 µM"}
{"molecule": "CCCC[N+](CCCC)(CCCC)CCCC.O=S(=O)([O-])ON=C1c2ccccc2-c2ccccc21", "GI50": "inactive: > 100 µM"}
{"molecule": "Cc1c(O)c(=O)ccn1CCc1c[nH]c2ccccc12", "GI50": "inactive: 11 µM"}
{"molecule": "Nc1nc(-c2ccco2)cc(-c2ccco2)n1", "GI50": "inactive: 98.9 µM"}
